Some of the results follow. The energies were worked out here from pooled read counts, against the library average; single values are noisy.
Target: T1, Pho4 (S. cerevisiae) (UniProt P07270)
T1 sequence: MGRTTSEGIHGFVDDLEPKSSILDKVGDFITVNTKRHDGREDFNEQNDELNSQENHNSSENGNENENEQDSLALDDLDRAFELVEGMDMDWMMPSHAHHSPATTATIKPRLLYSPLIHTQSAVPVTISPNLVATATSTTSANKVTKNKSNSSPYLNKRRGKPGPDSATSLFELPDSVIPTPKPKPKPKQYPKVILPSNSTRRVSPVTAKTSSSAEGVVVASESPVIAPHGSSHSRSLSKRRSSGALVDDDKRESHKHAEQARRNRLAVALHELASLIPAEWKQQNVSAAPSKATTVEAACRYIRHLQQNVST
Experiment: relative binding free energy (BET-seq); higher = weaker binding
Conditions: reference: library average

Sequence	relative binding free energy
CATTTCACGTGTAGGT	0.27 kcal/mol
TGGGACACGTGTGGAA	0.22 kcal/mol
GTTAACACGTGGTGGA	-0.16 kcal/mol
AGATGCACGTGGGATG	-0.09 kcal/mol
GGCGTCACGTGGGTTC	0.13 kcal/mol
TTTAGCACGTGAAAAG	0.43 kcal/mol
CGGTGCACGTGCTTGG	-0.02 kcal/mol
TCAGTCACGTGGCAGG	-0.03 kcal/mol
TAGGGCACGTGGGCGA	-0.24 kcal/mol
TATGGCACGTGATTTA	0 kcal/mol
TGGAGCACGTGGTCAA	-0.18 kcal/mol
TTGGGCACGTGCTTGG	-0.23 kcal/mol
GAGTTCACGTGTGATT	0.58 kcal/mol
ATCTACACGTGGTTTG	0.05 kcal/mol
GTGGACACGTGCTGTG	-0.01 kcal/mol
ACATGCACGTGTGTTT	0.01 kcal/mol
TGTCCCACGTGTGGGT	-0.07 kcal/mol
TGCTTCACGTGGAAGG	0.2 kcal/mol
CATATCACGTGTTTAG	0.13 kcal/mol
AGAGACACGTGGTTAG	0.01 kcal/mol
GATTTCACGTGGGAGC	0.48 kcal/mol
AGTTGCACGTGAATGG	0.25 kcal/mol
CAGAGCACGTGTGGTG	-0.09 kcal/mol
TGTAACACGTGGAAGT	0.07 kcal/mol
AAAGGCACGTGAGTAG	0.07 kcal/mol

Sequence	relative binding free energy
CTTTCCACGTGGGGGG	-0.2 kcal/mol
TAATGCACGTGATGTT	0.05 kcal/mol
ATCTGCACGTGATTGA	0.17 kcal/mol
ATGCTCACGTGTGGGT	0.21 kcal/mol
GTAGTCACGTGCAGGA	0.15 kcal/mol
GATCGCACGTGTAGTT	0.07 kcal/mol
GAAGACACGTGTGGTT	0.19 kcal/mol
AGATTCACGTGTGTAG	0.27 kcal/mol
TGGGTCACGTGTTGTT	0.16 kcal/mol
GGCGTCACGTGATTTG	0.38 kcal/mol
GCGGTCACGTGGTTAT	-0.08 kcal/mol
TTTGGCACGTGCCTGG	-0.37 kcal/mol
GGGGGCACGTGGAGAG	-0.06 kcal/mol
TGCCACACGTGTTTTG	0.34 kcal/mol
TGGTACACGTGTATTG	0.06 kcal/mol
TGTTCCACGTGTGAGC	0.24 kcal/mol
TATGCCACGTGTTAGG	-0.15 kcal/mol
AATTGCACGTGCATGG	-0.12 kcal/mol
TGGATCACGTGGGGGA	0.05 kcal/mol
GTATTCACGTGGCATA	0.16 kcal/mol
ATATTCACGTGTTTCT	0.21 kcal/mol
GGAAACACGTGAGCGG	0.24 kcal/mol
GGTGTCACGTGCTGTG	0.03 kcal/mol
TTTAACACGTGGATAT	0.07 kcal/mol
ATGCGCACGTGTGAGT	-0.09 kcal/mol

Sequence	relative binding free energy
GTGTGCACGTGTGACG	0.13 kcal/mol
TGGTGCACGTGCTAAT	-0.03 kcal/mol
GGGGGCACGTGTACGG	-0.02 kcal/mol
TACGGCACGTGGAAGG	-0.06 kcal/mol
AAACGCACGTGTGGGG	-0.07 kcal/mol
ACTTTCACGTGATTGT	0.28 kcal/mol
AGGTCCACGTGTGGAA	0.12 kcal/mol
GGTGTCACGTGTTTAG	0.17 kcal/mol
TCATGCACGTGAGTTG	0.12 kcal/mol
AGGGACACGTGGTTGC	0.03 kcal/mol
TATAACACGTGGATTG	0.08 kcal/mol
AAGTTCACGTGTGTAG	0.31 kcal/mol
TGGTTCACGTGTCTGC	0.25 kcal/mol
CGTGGCACGTGGGTTA	-0.15 kcal/mol
AGCAGCACGTGGGCGG	-0.27 kcal/mol
TAAATCACGTGTGTGA	0.24 kcal/mol
CAATTCACGTGGGTGG	0.17 kcal/mol
ATGGGCACGTGTATGC	-0.09 kcal/mol
TATTGCACGTGTGGCG	0.05 kcal/mol
GTAAGCACGTGTGTTG	-0.03 kcal/mol
GTCGACACGTGGAGTT	0.23 kcal/mol
AGAGGCACGTGTATGT	-0.1 kcal/mol
TTGCCCACGTGGGGTT	-0.28 kcal/mol
